Counter-ions that a name gives are not always drawn. This is one part of the list. Repeats are few or missing, and single values can be far off.
Key:
OVCAR4 = experiment: log2 surviving fraction (library drug vs vehicle, or drug + carboplatin vs carboplatin alone; relative to plate median); ovarian cancer lines: OVCAR4 is platinum-sensitive and Ov4Carbo platinum-resistant; higher = more cell survival; conditions: library drug concentration 10 µM, 7 days
Ov4Carbo = experiment: as above; conditions: library drug concentration 10 µM, 7 days

| SMILES | log2 surviving fraction (OVCAR4; carboplatin co-treatment 0 µM) | log2 surviving fraction (OVCAR4; carboplatin co-treatment 5 µM) | log2 surviving fraction (Ov4Carbo; carboplatin co-treatment 0 µM) | log2 surviving fraction (Ov4Carbo; carboplatin co-treatment 5 µM) |
| --- | --- | --- | --- | --- |
| NC(CO)(CO)CO [Trometamol] | -0.686 | 0.00589 | -0.0295 | -0.42 |
| NCCCC(O)(P(=O)(O)O)P(=O)(O)O [Alendronate (Fosamax)] | -0.284 | 0.00338 | 0.695 | -0.167 |
| CNC[C@@H](O)c1ccc(O)c(O)c1 [L-Adrenaline (Epinephrine)] | -0.743 | -0.621 | -0.11 | 0.566 |
| CCN1CCC[C@H]1CNC(=O)c1cc(S(N)(=O)=O)ccc1OC [Levosulpiride (Levogastrol)] | 0.262 | 0.00763 | 0.17 | -0.0663 |
| Cc1ccc(C(=O)Nc2ccc(CN3CCN(C)CC3)c(C(F)(F)F)c2)cc1C#Cc1cnc2cccnn12 | -8.68 | -7.71 | -8.44 | -7.48 |
| C[C@H](N)[C@H](O)c1cccc(O)c1 [Metaraminol Bitartrate] | 2.41 | 0.344 | 0.489 | -0.473 |
| O=C(CCCN1CCN(c2ccccn2)CC1)c1ccc(F)cc1 [Azaperone] | 0.715 | -0.29 | -0.076 | 0.822 |
| O=C1O[C@H]([C@@H](O)CO)C([O-])=C1O.[Na+] [Sodium ascorbate] | 0.478 | 0.452 | 0.0987 | 0.804 |
| Nc1ccn([C@@H]2CS[C@H](CO)O2)c(=O)n1 [Lamivudine (Epivir)] | 1.04 | 0.764 | 0.71 | 0.553 |
| COc1cc2c(cc1OC)C(=O)C(CC1CCN(Cc3ccccc3)CC1)C2 (configuration not stated) [Donepezil HCl (Aricept)] | -0.236 | 0.398 | -0.364 | -0.0186 |
| CNC1CC(N)C(O)C(OC2OC(CO)C(O)C3OC4(OC(C(N)CO)C(O)C(O)C4O)OC23)C1O (configuration not stated) [Hygromycin B] | -0.837 | -1.11 | -0.462 | 0.0743 |
| Cc1ccc(C(=O)c2cc(O)c(O)c([N+](=O)[O-])c2)cc1 [Tolcapone] | 0.425 | 0.527 | 1.39 | 1.25 |
| C[C@@H](O)[C@H]1C(=O)N2C(C(=O)[O-])=C(SC3Cn4cnc[n+]4C3)[C@H](C)[C@H]12 (some centres not stated) [Biapenem] | 1.36 | 0.228 | 0.612 | 0.288 |
| COc1cc2c(cc1OC)[C@@]13CCN4CC5=CCO[C@H]6CC(=O)N2[C@H]1[C@H]6[C@H]5C[C@H]43 [Brucine] | 0.0846 | -8.05 | 0.216 | 1.4 |
| CC(C(=O)O)c1ccc2c(c1)CC(=O)c1ccccc1S2 (configuration not stated) [Zaltoprofen] | 1.1 | -0.0566 | -0.0721 | -0.047 |
| Cc1cc(=O)n(-c2ccccc2)n1C [Antipyrine] | 0.331 | 0.46 | 0.368 | -0.146 |
| CCCCOc1ccc(C(=O)CCN2CCCCC2)cc1 [Dyclonine HCl] | 0.133 | -0.00631 | -0.272 | 0.173 |
| NCCc1ccc(O)c(O)c1 [Dopamine hydrochloride (Inotropin)] | -0.285 | -0.0583 | -0.204 | -0.495 |
| Cc1nc2c([nH]1)-c1ccccc1N(C(=O)c1ccc(NC(=O)c3ccccc3-c3ccccc3)cc1)CC2 [Conivaptan HCl (Vaprisol)] | -2.18 | -0.747 | -1.19 | -1.72 |
| CO/N=C(\C(=O)N[C@@H]1C(=O)N2C(C(=O)O)=C(Cn3ccc(=N)n3CCO)CS[C@H]12)c1csc(N)n1 [Cefoselis sulfate] | 1.14 | 0.822 | -0.0539 | 0.0585 |
| OC[C@H]1OC(O)[C@H](O)[C@@H](O)[C@@H]1O (stereo partly drawn) [Dextrose (D-glucose)] | 0.421 | 0.856 | 0.712 | 0.531 |
| CCCCCCCCCCOc1cc2c(O)c(C(=O)OCC)cnc2cc1OCC [Decoquinate] | 1 | 0.895 | 0.877 | 0.271 |
| NC1CCN(c2c(F)cc3c(=O)c(C(=O)O)cn(C4CC4)c3c2Cl)C1 (configuration not stated) | -0.595 | -0.221 | 1.1 | 0.864 |
| CC[C@H](C)C(=O)O[C@H]1C[C@H](O)C=C2C=C[C@H](C)[C@H](CC[C@@H](O)C[C@@H](O)CC(=O)O)[C@H]21 [Pravastatin sodium] | 0.312 | -0.016 | -0.43 | -0.234 |
| Nc1ccn(C[C@@H](CO)OCP(=O)(O)O)c(=O)n1 [Cidofovir (Vistide)] | -0.883 | 0.738 | 1.06 | 0.374 |
| O=S(=O)(O)c1cc(O)ccc1O [Ethamsylate] | -0.129 | 0.599 | 0.733 | 0.877 |
| Cc1nc(-c2ccc(OCC(C)C)c(C#N)c2)sc1C(=O)O [Febuxostat (Uloric)] | 0.825 | 0.379 | 0.38 | 0.0554 |
| CNC[C@H](O)c1ccc(O)c(O)c1 [Epinephrine bitartrate (Adrenalinium)] | -1.01 | -0.447 | -0.159 | -0.0807 |
